Experimental data: patent publication US20140155362A1, “BHQ-CONJUGATES, AND RELATED COMPOUNDS, METHODS OF MAKING THE SAME, AND METHODS OF USE THEREOF” (priority 2011, published 2014)

Conditions: at concentrations high enough for HPLC analysis
Text: The quantum efficiency (Qu) for photolysis of BHQ-VAA at 365 nm, which is not detrimental to biological tissues, is similar to other BHQ-caged compounds and quite high relative to other protecting groups for biological use.^11,12 The 2-photon uncaging action cross-section (δu), a measure of the sensitivity of the compound to 2PE-mediated release of VAA is also similar to other BHQ-caged compounds and sufficiently high for biological use.

Row | Compound | solubility in aqueous buffers
1 | COc1cc(CNC(=O)CCCC/C=C/C(C)C)ccc1OCc1ccc2ccc(O)c(Br)c2n1 [BHQ-Capsaicin] | poor solubility
2 | CCCCCCCCC(=O)NCc1ccc(OCc2ccc3ccc(O)c(Br)c3n2)c(OC)c1 [BHQ-VNA] | poor solubility
